Out of some 48,000 compounds screened, about 1,200 (2.5%) were called active. Not shown: some 2% with an inconclusive outcome.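 How the source made its calls: active means activation of at least 60% and not above a set upper limit (about 1 call in 100 departs from these limits); inconclusive means activation of 40% to 60%, or above that upper limit; inactive means activation under 40%.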 This is one part of the list.

The experiment concerns the target Probable G-protein coupled receptor 32 (Homo sapiens) (UniProt O75388). The experiment can be described thus: qHTS for Agonists of Human Resolvin D1 Receptor DRV1. Further: 0% is about no effect. The settings on record: CHO-K1 GPR32 beta-arrestin PathHunter luminescence, 90 min; at 76.9 µM; active compounds read high; zero percent set by DMSO-only wells. An outline of the steps: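 Luminescent readout of beta-Gal complementation quantifies ligand-induced beta-arrestin association with GPR32 in CHO-K1 cells; 90 min compound incubation at 37 °C, detection 1 h at room temperature.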
`Cc1ccc(SCC(=O)Nc2ccc3oc(-c4ccccc4C)nc3c2)cc1`: the activation was inactive: 11%.
Next, `COc1cc(C2CC(=O)Nc3c2c(C)nn3-c2nncc(-c3ccc(C)cc3)n2)cc(OC)c1OC` (centres undefined): inactive: -0.699%; `CC(CN(C)C)C(C)(O)Cc1ccc(Cl)cc1` (centres undefined): inactive: -2.71%.
Next, `CCOc1ccc(NC(=O)c2cnc3ccccn3c2=O)cc1`: inactive: -7.71%; `Cc1ccc2c(CC(=O)Nc3c(C(=O)c4ccc(C)c(F)c4)oc4ccccc34)coc2c1`: inactive: -12.2%; `Cc1ccc(CNC(=O)c2cc(C)nc3c2c(C)nn3-c2ccc(C)cc2)cc1`: inactive: -2.22%.
With `COc1ccc(S(=O)(=O)c2c(O)c3ccc(C(=O)NCc4ccc(F)cc4)cc3[nH]c2=O)cc1`, the activation is inactive: -14%.
For `COc1ccc(NC(=O)CSc2nc(-c3ccc(F)cc3)[nH]c2-c2ccc(C)cc2)cc1OC`, the activation was inactive: -21.7%.
As to `CC(=O)c1ccc(NC(=O)c2cnn(-c3cccc(F)c3)c2-n2cccc2)cc1`, the activation was inactive: -8.22%.
Next, `CC[C@@H](CO)NCCN[C@@H](CC)CO`: inactive: -26.2%; `CCOc1ccc(CCNC(=O)c2ccc3c(c2)c(C)c(C)n3Cc2ccccc2)cc1OCC`: inactive: -20.5%.
Regarding `O=C(Nc1ccc(Oc2ccccc2)cc1)C1CCN(S(=O)(=O)c2ccc(Cl)cc2)CC1`, the activation was inactive: -2.66%.
On to `O=S(=O)(c1ccc(Cl)cc1)c1nc(-c2ccco2)oc1SCc1ccc(F)cc1`, for which the activation is inactive: -22.6%.
Turning to `COc1ccc(CCN2C(=O)c3[nH]nc(-c4ccccc4O)c3C2c2ccc(OC)cc2)cc1` (centres undefined), the activation is inactive: -9.06%.
Regarding `CCOC(=O)c1cc(S(=O)(=O)NCc2ccc(C)cc2)[nH]n1`, the activation was inactive: -12.5%.
For `COc1ccccc1NC(=O)CCCc1nnc2n(C)c(=O)c3sccc3n12` the value was inactive: 21.4%; for `CCOc1ccccc1CNC(=O)C1CCN(S(=O)(=O)c2ccc3[nH]c(=O)ccc3c2)CC1`, inactive: -0.645%.
For `COc1ccccc1NC(=O)CSC1=Nc2ccccc2C2=NC(CCC(=O)NCCc3ccccc3)C(=O)N12` (centres undefined) the value was inactive: 2.69%.
Next, `CCOC(=O)c1c(C)oc2ncnc(Nc3ccc(OC)cc3OC)c12`: inactive: 1.11%.
As for `CCOc1ccccc1NC(=O)Cn1ncc2c(=O)oc3ccc(C)cc3c21`, the activation is inactive: -6.6%.
In the case of `O=C(Nc1nc2c(s1)CCCCCC2)Nc1ccc(F)cc1F`, the activation is inactive: -4.99%.
Consider `COc1ccc(N2CCN(C(c3ccccc3)c3sc4nc(-c5ccco5)nn4c3O)CC2)cc1` (centres undefined), for which the activation is inactive: -26.9%.
Next, `Cc1ccc(C(=O)N2CCc3cc(CNS(=O)(=O)c4cccs4)ccc32)cc1`: inactive: -17.9%.
For `COc1ccc(-c2noc(CSc3nnc(C)n3-c3ccc(C)cc3)n2)cc1OC` the value was inactive: 1.99%.
For `CN1C(=O)Cc2cc(S(=O)(=O)NCCc3ccc(Cl)cc3)ccc21` the value was inactive: -20.8%.
As for `CCCOc1ccc(NC(=O)CC2C(=O)N(c3cccc(OC)c3)C(=O)N2Cc2cccs2)cc1` (centres undefined), the activation is inactive: -16.3%.
Next, `O=C(CSCc1cnn(-c2ccccc2)c1-n1cccc1)NCc1ccc(Cl)cc1`: inactive: -28.1%.
Turning to `COc1ccccc1N1CCN(C(=O)c2cn(CC(C)C)c(=O)c3c2c2ccccc2n3C)CC1`, the activation was inactive: -30.4%.
Take `O=C(Nc1ccc(O)c(-c2nc3ccccc3o2)c1)c1sc2ccccc2c1Cl`: the activation was inactive: -3.52%.
For `CN1C2CCC1CC(OC(=O)C(O)c1ccccc1)C2` (centres undefined) the value was inactive: 9.54%; for `CCOc1ccccc1C(=O)NC1(C(F)(F)F)NC(=O)N(CCc2ccc(OC)c(OC)c2)C1=O` (centres undefined), inactive: -4.53%; for `COc1cc(OC)cc(-c2cc3nc(C)c(CCC(=O)NCc4ccccc4)c(C)n3n2)c1`, inactive: -19.4%.
Next, `Cc1cccc(C2C=C(c3ccc(C)c(C)c3)Nc3nnnn32)c1` (centres undefined): inactive: -42.8%.
For `Cc1cc(F)ccc1S(=O)(=O)Nc1ccc2oc3c(c2c1)CC(C)CC3` (centres undefined) the value was inactive: 25.9%.
For `Cc1nc2ccn(Cc3ccccc3)c(=O)c2cc1C(=O)N1CCN(c2ccccc2F)CC1`, the activation was inactive: 9.21%.
In the case of `CC(C)c1ccc(NC(=O)c2ccc3c(c2)CCN3S(=O)(=O)c2ccccc2)cc1`, the activation is inactive: -5.72%.
`O=C(Nc1nnc(S(=O)(=O)N2CCCc3ccccc32)s1)c1ccccc1Cl`: the activation is inactive: 26%.
With `COc1ccc(CCNC(=O)CCCn2c(=O)c3cccn3c3ccccc32)cc1OC`, the activation is inactive: -11%.
For `COc1ccccc1N1CCN(C(=O)C2CCN(S(=O)(=O)Cc3ccccc3)CC2)CC1` the value was inactive: 47.9%.
As to `CCC(Cc1ccccc1)NC(=O)CN1C(=O)COc2ccc(S(=O)(=O)N3CCCCCC3)cc21` (centres undefined), the activation is inactive: 3.73%.
For `Cc1cc2c(cc1NC(=O)c1ccccc1C)n(C)c(=O)c(=O)n2C` the value was inactive: -18.8%.
Next, `CCOCCCNC(=O)C1CCN(C(=O)c2cc3sccc3n2C)CC1`: inactive: -4.54%.
Next, `CC(C)CCN(Cc1ccco1)C(=O)c1cc2c(s1)-c1ccccc1OC2`: inactive: 0.492%; `COc1ccc(NC(=O)CCCN2C(=O)C(c3ccccc3)Oc3cccnc32)c(OC)c1` (centres undefined): inactive: 32.2%; `CCc1ccc(CNC(=O)CCCN2C(=O)CCn3nc(-c4cccn4C)cc32)cc1`: inactive: -10.3%.
For the molecule `CCc1ccc2oc(C(=O)Nc3cccc(Cl)c3C)cc(=O)c2c1`, the activation was inactive: -16.4%.
Regarding `COc1cc(-c2nnc(SCCOc3ccc(Cl)cc3)o2)cc(OC)c1OC`, the activation is inactive: -1.47%.
Consider `O=C(COc1ccccc1)OCc1cc(=O)n2nc(C3CC3)sc2n1`, for which the activation was inactive: 11.6%.
Next, `Cc1cccc(N2CCN(C(=O)Cc3c(C(=O)O)c(C)cn3C)CC2)c1C`: inactive: 5.57%.
For `Cc1ccc(C(=O)c2c(N)c(-c3nc(-c4ccc5c(c4)OCO5)cs3)c3ccccn23)cc1C` the value was inactive: -2.89%; for `COCc1nn2cc(-c3ccc(C)cc3)nc2s1`, inactive: -10.5%; for `Cc1ccc(C(=O)Nc2cc(-c3nc4ncccc4o3)ccc2C)c(C)c1`, inactive: 6.17%.
For `CC(=O)c1ccc(N2CCN(C(=O)C3CCN(S(=O)(=O)c4c(C)noc4/C=C/c4ccc(C)cc4)CC3)CC2)cc1` the value was inactive: -6.54%.
On to `CC(=O)N1CCc2c(sc3c2c(=O)n(Cc2ccccc2)c(=O)n3Cc2ccc(C)cc2)C1`, for which the activation was inactive: -10.7%.

These data come from PubChem BioAssay AID1346428 (National Center for Advancing Translational Sciences (NCATS), 2018).
